According to PMC9911399, “Two distinct binding modes provide the RNA-binding protein RbFox with extraordinary sequence specificity”:
Positions count from the first letter of the chain named. Some of the results follow.

B1: GCUAAGA (DNA:RNA)
RNA: GGGAGACCGGAAUUCAGAUUGUCCGCUAAGAUUAAAUCCCGUCGUAGCCACCA
DNA 1: CAATCTGAATTCCGGTCTCCC
DNA 2: TGGTGGCTACGACGGGATT
B2: UCCGCUC (DNA:RNA)
RNA: B1 RNA with G25U, U27C, A28G, A29C, G30U, A31C
DNA 1: CAATCTGAATTCCGGTCTCCC
DNA 2: TGGTGGCTACGACGGGATT
B3: GUGAGAC (DNA:RNA)
RNA: B1 RNA with C26U, U27G, A29G, G30A, A31C
DNA 1: CAATCTGAATTCCGGTCTCCC
DNA 2: TGGTGGCTACGACGGGATT
B4: AAAAAGC (DNA:RNA)
RNA: B1 RNA with G25A, C26A, U27A, A31C
DNA 1: CAATCTGAATTCCGGTCTCCC
DNA 2: TGGTGGCTACGACGGGATT
B5: ACUUCUG (DNA:RNA)
RNA: B1 RNA with G25A, A28U, A29C, G30U, A31G
DNA 1: CAATCTGAATTCCGGTCTCCC
DNA 2: TGGTGGCTACGACGGGATT
B6: UAUUUCA (DNA:RNA)
RNA: B1 RNA with G25U, C26A, A28U, A29U, G30C
DNA 1: CAATCTGAATTCCGGTCTCCC
DNA 2: TGGTGGCTACGACGGGATT
B7: AUAGUAC (DNA:RNA)
RNA: GGGAGACCGGAAUUCAGAUUGUCCAUAGUACUUAAAUCCCGUCGUAGCCACCA
DNA 1: CAATCTGAATTCCGGTCTCCC
DNA 2: TGGTGGCTACGACGGGATT
B8: CUAAAGG (DNA:RNA)
RNA: B1 RNA with G25C, C26U, U27A, A31G
DNA 1: CAATCTGAATTCCGGTCTCCC
DNA 2: TGGTGGCTACGACGGGATT
B9: CGAUUCA (DNA:RNA)
RNA: B7 RNA with A25C, U26G, G28U, A30C, C31A
DNA 1: CAATCTGAATTCCGGTCTCCC
DNA 2: TGGTGGCTACGACGGGATT

Molecular target: T1, RBFOX1 RRM (Homo sapiens, UniProt Q9NWB1 109-208)
T1 sequence: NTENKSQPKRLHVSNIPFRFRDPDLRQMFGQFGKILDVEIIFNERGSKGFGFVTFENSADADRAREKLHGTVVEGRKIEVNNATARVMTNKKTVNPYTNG
Assay: EMSA; HiTS-Eq, 1 nM pool, 10 min; buffer printed only for the single-RNA assays: 10 mM Tris pH 7.5, 150 mM NaCl, 3.4 mM EDTA, 0.001% NP-40, 30 C
Details: tags: His6 N-terminal (pET28a); label: 5' 32P
How it was run: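 A pool of RNA with 7 randomized nucleotides, 5′-radiolabelled and with DNA-annealed flanks, was equilibrated at 1 nM for 10 min in 50 µL with purified RbFox RRM, wild type or mutant, across increasing protein concentrations. Free RNA was separated by 8% native PAGE, excised, reverse-transcribed, barcoded by PCR and sequenced. Relative association constants were obtained from read-count changes of each RNA species versus the control reaction and normalised to the cognate motif.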

Binder	binding signal
B1	0.0145 KA relative to UGCAUGU
B2	0.0113 KA relative to UGCAUGU
B3	0.00961 KA relative to UGCAUGU
B4	0.0016 KA relative to UGCAUGU
B5	0.00885 KA relative to UGCAUGU
B6	0.00937 KA relative to UGCAUGU
B7	0.00342 KA relative to UGCAUGU
B8	0.00771 KA relative to UGCAUGU
B9	0.00877 KA relative to UGCAUGU
